Data as given in article PMC5696382.
Residue numbers refer to the chain shown, from its start. These are yes or no findings as the source states them, for the method shown. In cells and extracts the contact can be indirect. Some binding calls cover weakened binding; strength is not graded here. For some assays here: Sequences can lack the tags named with a protein. One block for each molecule: values may come before it.

Amino acid sequences for entries named in this document (tags omitted). A change or cut given only in a name is not applied to a line headed by its entry. Chains listed by the source or under a name are the forms on record and can include a tag or linker. Residues count along the entry.
UniProt Q13586: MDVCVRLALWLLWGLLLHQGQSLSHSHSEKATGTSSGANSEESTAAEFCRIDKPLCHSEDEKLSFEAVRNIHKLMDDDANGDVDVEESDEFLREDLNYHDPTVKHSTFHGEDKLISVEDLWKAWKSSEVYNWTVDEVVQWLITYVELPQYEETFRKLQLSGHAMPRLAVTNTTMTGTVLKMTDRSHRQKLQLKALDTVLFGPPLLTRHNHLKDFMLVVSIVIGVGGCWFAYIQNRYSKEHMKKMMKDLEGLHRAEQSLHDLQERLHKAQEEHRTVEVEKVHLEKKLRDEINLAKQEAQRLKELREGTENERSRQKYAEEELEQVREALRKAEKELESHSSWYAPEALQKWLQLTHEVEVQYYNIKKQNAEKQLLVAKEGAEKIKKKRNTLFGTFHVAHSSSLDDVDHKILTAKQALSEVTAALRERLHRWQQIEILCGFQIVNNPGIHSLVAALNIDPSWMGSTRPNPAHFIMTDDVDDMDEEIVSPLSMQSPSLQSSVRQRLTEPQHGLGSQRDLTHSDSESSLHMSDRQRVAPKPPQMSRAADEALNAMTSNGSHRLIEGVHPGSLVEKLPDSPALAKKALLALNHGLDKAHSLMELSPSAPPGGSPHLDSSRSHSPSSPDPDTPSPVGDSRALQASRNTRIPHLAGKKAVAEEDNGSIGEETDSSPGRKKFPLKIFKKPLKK
STIM1-WT-GFP expressed in BM-DCs: residues 23-685 of Q13586
STIM1-ΔCt, GFP-tagged: residues 23-237 of Q13586
STIM1-CAD, GFP-tagged: residues 342-448 of Q13586
STIM1-D76A, GFP-tagged (constitutively active STIM1) (Q13586, form named): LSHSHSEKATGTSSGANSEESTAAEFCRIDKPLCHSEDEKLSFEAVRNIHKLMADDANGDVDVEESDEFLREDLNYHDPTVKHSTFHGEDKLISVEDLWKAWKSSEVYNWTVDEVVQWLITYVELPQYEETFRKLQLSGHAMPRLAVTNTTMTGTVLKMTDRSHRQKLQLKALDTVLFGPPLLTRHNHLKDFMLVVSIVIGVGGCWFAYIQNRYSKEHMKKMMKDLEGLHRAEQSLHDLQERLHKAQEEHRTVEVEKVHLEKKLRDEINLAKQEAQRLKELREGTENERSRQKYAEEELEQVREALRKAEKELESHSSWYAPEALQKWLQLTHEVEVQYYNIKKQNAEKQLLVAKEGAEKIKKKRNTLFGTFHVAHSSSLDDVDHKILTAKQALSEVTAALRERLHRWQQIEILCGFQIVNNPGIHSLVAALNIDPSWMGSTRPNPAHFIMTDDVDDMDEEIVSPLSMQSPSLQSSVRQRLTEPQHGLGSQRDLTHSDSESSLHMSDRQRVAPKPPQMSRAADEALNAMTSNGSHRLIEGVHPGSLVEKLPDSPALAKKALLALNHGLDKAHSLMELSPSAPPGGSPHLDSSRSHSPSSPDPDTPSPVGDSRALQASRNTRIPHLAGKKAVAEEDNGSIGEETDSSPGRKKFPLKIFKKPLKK
UniProt P70302, residues 23-685: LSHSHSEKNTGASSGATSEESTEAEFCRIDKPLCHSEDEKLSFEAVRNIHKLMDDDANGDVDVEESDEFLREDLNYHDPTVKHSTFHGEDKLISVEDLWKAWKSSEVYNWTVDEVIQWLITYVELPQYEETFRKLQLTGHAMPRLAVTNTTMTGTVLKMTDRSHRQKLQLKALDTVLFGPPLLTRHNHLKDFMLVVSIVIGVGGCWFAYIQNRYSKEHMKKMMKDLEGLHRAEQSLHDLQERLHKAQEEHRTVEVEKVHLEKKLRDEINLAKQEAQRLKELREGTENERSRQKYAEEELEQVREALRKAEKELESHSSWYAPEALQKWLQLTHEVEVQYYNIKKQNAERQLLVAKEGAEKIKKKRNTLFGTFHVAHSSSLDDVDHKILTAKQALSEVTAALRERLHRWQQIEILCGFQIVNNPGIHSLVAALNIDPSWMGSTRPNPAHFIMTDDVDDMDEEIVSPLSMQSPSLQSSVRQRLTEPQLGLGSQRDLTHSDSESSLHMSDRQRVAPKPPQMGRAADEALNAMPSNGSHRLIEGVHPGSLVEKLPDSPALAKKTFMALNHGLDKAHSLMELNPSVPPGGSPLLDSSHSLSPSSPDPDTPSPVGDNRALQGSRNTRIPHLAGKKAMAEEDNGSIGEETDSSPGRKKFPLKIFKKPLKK

Legend:
[1] = biological target: T1, UNC93B1 WT, FLAG-tagged (uncoordinated 93 homolog B1) (mouse) (UniProt Q8VCW4); test: co-IP; murine fibroblasts co-transfected with Stim1-GFP and FLAG-tagged UNC93B1 (WT or 3d); immunoprecipitation of UNC93B1-tagged protein (protein G beads coated with anti-FLAG antibody); Supplementary Fig. 4a
T1 sequence: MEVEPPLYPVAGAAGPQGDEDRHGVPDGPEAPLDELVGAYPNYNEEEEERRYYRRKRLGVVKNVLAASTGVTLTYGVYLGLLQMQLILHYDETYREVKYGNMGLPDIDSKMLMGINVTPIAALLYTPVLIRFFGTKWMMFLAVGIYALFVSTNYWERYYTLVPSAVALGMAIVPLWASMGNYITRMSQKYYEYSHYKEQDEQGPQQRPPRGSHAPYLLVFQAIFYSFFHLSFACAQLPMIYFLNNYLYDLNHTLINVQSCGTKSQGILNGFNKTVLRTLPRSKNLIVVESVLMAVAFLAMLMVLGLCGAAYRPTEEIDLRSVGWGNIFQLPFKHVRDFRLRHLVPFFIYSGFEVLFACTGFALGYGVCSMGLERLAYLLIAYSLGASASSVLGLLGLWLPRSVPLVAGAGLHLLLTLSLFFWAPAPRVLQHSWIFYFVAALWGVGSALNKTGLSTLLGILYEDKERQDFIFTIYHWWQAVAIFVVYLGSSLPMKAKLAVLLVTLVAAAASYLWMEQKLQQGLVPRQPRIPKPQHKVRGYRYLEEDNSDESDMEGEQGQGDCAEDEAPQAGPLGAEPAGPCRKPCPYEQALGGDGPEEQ

[2] = biological target: T2, UNC93B1 3d, FLAG-tagged (His 412 to Arg) (mouse) (UniProt Q8VCW4); test: as above
T2 sequence: T1 sequence with H412R

[3] = biological target: STIM1-D76A, GFP-tagged (constitutively active STIM1) (UniProt Q13586); test: co-IP; murine fibroblasts co-transfected with GFP-tagged STIM1 forms and FLAG-tagged UNC93B1 (WT or 3d); 4 mg of cell lysate o/n with GFP-Trap_MA beads (STIM1 as bait); immunoblot with anti-GFP and anti-FLAG
STIM1-CAD, GFP-tagged = STIM1-CAD, GFP-tagged (UniProt Q13586); test: as above
STIM1-ΔCt, GFP-tagged = STIM1-ΔCt, GFP-tagged (UniProt Q13586); test: as above
[4] = biological target: STIM1-WT-GFP-tagged (stromal interacting protein 1) (UniProt Q13586); test: as above
[5] = biological target: STIM1-WT-GFP expressed in BM-DCs (UniProt Q13586); test: proximity ligation; Duolink in fixed, permeabilised WT or 3d/3d DCs transfected with GFP-tagged STIM1 (WT or D76A); anti-GFP and anti-UNC93B1 antibodies; steady state and after 60 min of phagocytosis of 3 μm beads; confocal microscopy
[6] = biological target: STIM1, endogenous in BM-DCs (mouse (endogenous in BM-DCs)) (UniProt P70302); test: co-IP; endogenous proteins in BM-DCs; lysis in 50 mM Tris-HCl pH 7.4, 150 mM NaCl, 5 mM EDTA, 1% NP-40; protein G beads coated with anti-STIM1 antibody; UNC93B1 detected with anti-UNC93B1

binding [1]: binds
binding [2]: binds
Molecule: STIM1-WT-GFP-tagged (stromal interacting protein 1) (from UniProt Q13586 23-685)

binding [3]: no binding
binding (STIM1-CAD, GFP-tagged): no binding
binding (STIM1-ΔCt, GFP-tagged): binds
binding [4]: binds
B1: UNC93B1 WT, FLAG-tagged (uncoordinated 93 homolog B1) (protein, UniProt Q8VCW4 1-598)
chain: T1 sequence

binding [3]: no binding
binding [4]: binds
B2: UNC93B1 3d, FLAG-tagged (His 412 to Arg) (protein, UniProt Q8VCW4 1-598)
chain: T1 sequence with H412R

binding [5]: binds
B3: UNC93B1 3d, endogenous in 3d/3d BM-DCs (protein, UniProt Q8VCW4 1-598)
chain: T1 sequence with H412R

binding [6]: binds
binding [5]: binds
B4: UNC93B1, endogenous in WT BM-DCs (protein, UniProt Q8VCW4 1-598)
chain: T1 sequence
